Publication PMC4336329 (PLoS ONE, 2015)
Hit rate of the full screen: of about 310,000 compounds, about 2,200 (0.71%) showed an effect of 50% or more. The effect is printed as a negative number. The list shows a part of the results.

biological target: human ether-à-go-go-related gene (hERG) potassium channel (human, UniProt Q12809); experiment: primary screen, population patch clamp on CHO cells stably expressing hERG
Sequence (Q12809 whole entry, looked up): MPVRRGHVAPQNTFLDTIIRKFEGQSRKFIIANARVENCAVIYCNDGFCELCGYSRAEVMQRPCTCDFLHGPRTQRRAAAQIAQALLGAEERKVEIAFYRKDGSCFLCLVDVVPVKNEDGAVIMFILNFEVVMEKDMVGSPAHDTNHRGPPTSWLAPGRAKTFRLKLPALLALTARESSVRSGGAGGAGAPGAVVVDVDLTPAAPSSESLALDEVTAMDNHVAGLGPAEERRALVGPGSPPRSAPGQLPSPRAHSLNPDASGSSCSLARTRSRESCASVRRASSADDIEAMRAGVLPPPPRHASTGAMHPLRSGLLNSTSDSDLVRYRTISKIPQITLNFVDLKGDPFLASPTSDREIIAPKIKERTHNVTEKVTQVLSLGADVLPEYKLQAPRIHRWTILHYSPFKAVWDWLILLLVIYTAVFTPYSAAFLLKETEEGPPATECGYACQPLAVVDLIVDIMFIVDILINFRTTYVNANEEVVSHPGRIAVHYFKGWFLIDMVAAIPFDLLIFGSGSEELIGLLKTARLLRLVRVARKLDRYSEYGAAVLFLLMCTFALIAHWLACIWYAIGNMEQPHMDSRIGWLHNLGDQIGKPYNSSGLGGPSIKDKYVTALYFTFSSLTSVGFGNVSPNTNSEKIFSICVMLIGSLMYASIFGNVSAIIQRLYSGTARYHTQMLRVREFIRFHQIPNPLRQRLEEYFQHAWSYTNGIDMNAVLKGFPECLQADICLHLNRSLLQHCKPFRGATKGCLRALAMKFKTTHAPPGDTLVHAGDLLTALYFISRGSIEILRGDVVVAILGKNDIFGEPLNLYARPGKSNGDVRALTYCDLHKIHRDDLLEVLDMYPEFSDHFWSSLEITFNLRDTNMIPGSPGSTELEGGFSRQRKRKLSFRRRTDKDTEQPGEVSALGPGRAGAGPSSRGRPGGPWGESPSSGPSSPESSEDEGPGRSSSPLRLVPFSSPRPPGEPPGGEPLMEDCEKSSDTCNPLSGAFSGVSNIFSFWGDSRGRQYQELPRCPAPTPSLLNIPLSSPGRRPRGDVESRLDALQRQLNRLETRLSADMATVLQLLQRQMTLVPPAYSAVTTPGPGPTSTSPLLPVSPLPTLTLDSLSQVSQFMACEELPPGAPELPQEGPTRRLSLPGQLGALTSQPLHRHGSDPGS

Compound	hERG current change (%, negative = inhibition) at 1uM [%]
CC(C)(C)OC(=O)NCCCCCc1cn(CC(=O)NCCCCCCCCCCC(=O)N2CCN(C(=O)OC(C)(C)C)CC2)nn1	16.8
CCc1cc2c(NCCN3CCCCC3)ncnc2s1.Cl	-55.9
CCOC(=O)c1c(C)[nH]c(C(=O)COC(=O)CSC)c1C	8.31
Cc1ccc2c(c1)N(C(=O)CCC(=O)N1CCN(c3cccc(C)c3C)CC1)CCO2	8.19
O=C1CCC(=O)N(O)CCCCCNC(=O)CCC(=O)N(O)CCCCCNC(=O)CCC(=O)N(O)CCCCCN1	3.08
Cc1ccc(OCCN2C(=O)S/C(=C\c3ccc(C)o3)C2=O)cc1	13.7
Cc1ccc(/C=N/NC(=O)c2ccc(Cn3cc([N+](=O)[O-])cn3)o2)cc1	-16.7
CC(C)N(Cc1ccccc1)CC(O)COc1ccc(S(=O)(=O)N2CCOCC2)cc1Cl (centres unmarked)	0.591
CCOC(=O)N1CCC(C(=O)Nc2ccc(OCC)cc2)CC1	5.09
COc1ccc2c3c([nH]c2c1)C(C)=NCC3	2.94
c1ccc2nc3c(nc2c1)[nH]c1ccccc13	-0.64
COc1cccc2cc(C(=O)NCc3ccc(F)cc3)c(=N)oc12	7.15
CCCCN(C(=O)CNC(=O)c1ccco1)C(C(=O)NC1CCCCC1)c1ccc(OC)cc1OC (centres unmarked)	5.05
NC(=O)CC[C@@H]1NC(=O)[C@H](Cc2ccc(O)cc2)NC(=O)c2cc([N+](=O)[O-])cc(F)c2OCC[C@@H](C(N)=O)NC1=O	14.1
Cc1cc(C)c(S(C)(=O)=O)c(S(=O)c2ccc(Cl)cc2)n1 (centres unmarked)	3.19
Cc1cc(C)nc(/N=C(\N)Nc2cccc(OCc3ccccc3)c2)n1	-41.9
O=S(=O)(NCC1CCCO1)c1ccc(Br)s1 (centres unmarked)	11.5
COc1ccccc1NC(=O)CCCc1nnc2n(C)c(=O)c3sccc3n12	17.5
Cc1ccc(NS(=O)(=O)c2cc(C(=O)N3CCN(CCO)CC3)ccc2C)cc1	5.41
O=C1Nc2ccccc2C(O)(C(=O)NC2CC2)N1c1ccc(Cl)c(Cl)c1 (centres unmarked)	3.89
CC(=O)N=C1SC2CS(=O)(=O)CC2N1c1ccccc1Cl (centres unmarked)	12.4
O=C(NCc1ccco1)C(c1ccncc1)N(C(=O)Cc1cccs1)c1ccccc1 (centres unmarked)	-4.34

Compound	hERG current change (%, negative = inhibition) at 1uM [%]
O=C(CSc1n[nH]c(=O)[nH]c1=O)NCC1CCCCC1	3.79
C/C(=N\OC(=O)c1ccc(Cl)cc1)c1sc(-c2ccccc2)nc1C	4.56
S=C(NCCCc1ccccc1)NCc1ccccc1	9.51
Cc1ccc(Cn2c(C(CO)Nc3nc(-c4ccc(Cl)c([N+](=O)[O-])c4)cs3)nc3ccccc32)cc1 (centres unmarked)	8.36
OCCC#Cc1c(-c2ccsc2)sc2ccccc12	6.26
COc1ccc(C2N(c3ccc(OC)cc3)C(=O)C3CCCN32)cc1 (centres unmarked)	10.4
COc1cc2[nH]c(=S)nc(NCc3ccc(C)cc3)c2cc1OC	11.9
CC(O)(CS(=O)(=O)c1ccc(F)cc1)C(=O)Nc1ccc(C#N)c(C(F)(F)F)c1 (centres unmarked)	2.31
Cc1nn(C)cc1S(=O)(=O)N1CCN(Cc2cccc(Cl)c2)CC1	8.22
COc1ccc(/C=C/CN2CCN(Cc3cccc(OC)c3)C(CCO)C2)cc1 (centres unmarked)	-20.7
O=c1c([N+](=O)[O-])c(N2CCOCC2)c2ccccc2n1-c1ccccc1	8.47
Cc1ccccc1OCC(=O)NC(C)c1ccccc1 (centres unmarked)	13.5
CN(c1ccccc1)S(=O)(=O)c1cccc(NC(=O)CSc2nnc(C3CC3)n2C)c1	16.4
COc1ccc(OC(C)C(=O)N(C)Cc2nc(-c3ccc(C)cc3)no2)cc1 (centres unmarked)	4.24
COc1ccc(C(=O)N=c2sccn2C)cc1	24.4
CC(=O)c1ccc(N2CCN(C(=O)CCCc3nc4ccccc4s3)CC2)cc1	-7.74
COC(=O)Cc1ccc(NC(=S)N2CCN(C)CC2)cc1	7.03
O=C(C[n+]1ccc(C(=O)N/N=C/c2ccc(O)cc2)cc1)c1ccccc1.[Br-]	4.63
COc1ccc(C(=O)N2CCN(c3ccc(N4CCOCC4)nn3)CC2)cc1OC	12.6
O=C(Cn1cnc2scc(-c3cccc([N+](=O)[O-])c3)c2c1=O)NCc1ccco1	-11.9
Cc1ccc(S(=O)(=O)CCC(=O)OCC(=O)NCc2ccc(Cl)cc2)cc1	33.1
COc1ccc(C(CCNCc2ccc(F)cc2)c2ccc(F)cc2)cc1 (centres unmarked)	-3.35

Compound	hERG current change (%, negative = inhibition) at 1uM [%]
COc1ccc(NS(=O)(=O)c2ccc(NC(=O)C3CC3)cc2)cc1	16.8
CSC1=NCCN1S(=O)(=O)c1ccc(NC(C)=O)cc1	-5.94
COc1ccc(CNc2oc(C)nc2C#N)cc1	1.32
COC(=O)N/N=C/c1ccccc1OCCOc1ccc(OC)cc1	19.5
O=C(NCC(c1ccco1)N1CCc2ccccc21)c1ccccc1F (centres unmarked)	1.96
COc1cccc(C2C3=C(N=c4s/c(=C\c5ccc(O)cc5)c(=O)n42)c2ccccc2CC3)c1OC (centres unmarked)	13.1
CC(N=c1ccccn1C(=O)Nc1ccc(Cl)cc1)c1ccco1 (centres unmarked)	12
CCCn1c(SCC(=O)NC(C)C23CC4CC(CC(C4)C2)C3)n[nH]c1=O (centres unmarked)	-10.2
CCO/C=C1/C(=O)N(c2ccccc2OC)C(=O)c2ccccc21	13.1
CC(C)Oc1ccc(C(=O)Nc2ccc(N3CCCC3)cc2)cc1	4.58
CCN1CNC(=S)N(c2cc(C)ccc2C)C1	12.3
COc1ccccc1N(CC(=O)N1CCCCC1)S(=O)(=O)c1ccccc1	10.1
O=C(CSc1nc(-c2ccccc2)nc2ccccc12)Nc1nccs1	0.655
CC1CCN(CC(=O)n2c3c(c4ccccc42)CCCC3)CC1.Cl	12.3
CCCCC(=O)NC(Nc1nc(C2CC2)cs1)(C(=O)OCC)C(F)(F)F (centres unmarked)	-1.7
CCOC(=O)Cc1csc(-n2sc3ccccc3c2=O)n1	14.6
Cc1ccc(S(=O)(=O)N2CCOCC2)cc1NC(=O)CSc1nnc(C2CC2)n1C1CC1	10.9
O=C(Nc1ccc(Cc2ccncc2)cc1)C1CCC(N2C(=O)C3C4C=CC(C4)C3C2=O)CC1 (centres unmarked)	7.25
COc1cccc2c1cc1c(=O)n(CC(=O)N3CCC(C)CC3)nc(C)n12	14.2
O=C(N/N=C/c1ccccc1[N+](=O)[O-])c1ccc(CN2CCOCC2)cc1	4.45
COc1ccc(CCNC(=O)c2cc3c(=O)n4cccc(C)c4nc3s2)cc1OC	14.6
Cc1cc(C)cc(N(C(=O)Cn2nnc(-c3ccccc3)n2)C(C(=O)NC2CCCCC2)c2ccccn2)c1 (centres unmarked)	-1.15

Compound	hERG current change (%, negative = inhibition) at 1uM [%]
CCC1CCCN1Cn1cnc2c([nH]c3ccccc32)c1=O (centres unmarked)	-45.7
CCOC(=O)c1[nH]c(C)c(C(=O)NCCN2CCOCC2)c1C	6.14
CCOc1ccc(NC(=O)NC(=O)N(C)S(=O)(=O)c2ccc(C)cc2)cc1	1.19
O=C(CNC(=O)Cn1ccc2ccccc2c1=O)NCCCN1CCN(c2cccc(Cl)c2)CC1	-19.7
O=C(c1cc2cc(F)ccc2[nH]1)N(Cc1cccnc1)CC1CCCN(C2CCCCC2)C1 (centres unmarked)	-81
COc1ccc(-c2oc3cccnc3c2-c2ccc(OC)nc2)cc1	-4.58
CC(OC(=O)CCCN1C(=O)c2ccccc2C1=O)C(=O)Nc1ncc(Cl)cc1Cl (centres unmarked)	1.28
O=C(NCCc1ccccc1)C(=O)NCC1OCCN1S(=O)(=O)c1ccccc1 (centres unmarked)	1.2
O=C(CN1CCCCCC1)N/N=C/c1cccs1	10.1
COc1ccc(OC)c(C(=O)CN2C(=O)NC(C)(c3ccccc3)C2=O)c1 (centres unmarked)	9.66
CCOC(=O)CSc1nc2ccccc2n1CC(=O)NC(C)(C)C	14.1
O=C(NC(=S)N1CCN(Cc2ccc3c(c2)OCO3)CC1)c1ccc(Cl)cc1	-3.62
O=C(c1ccco1)N1CCN(S(=O)(=O)c2ccccc2)CC1	13.1
CCc1n[nH]c(=O)n1Cn1c(CC)n[nH]c1=O	4.91
O=C(Nc1cccc(C(=O)Nc2cccc(Br)c2)c1)c1ccccc1	10.3
O=C(COC(=O)CCSc1ccccc1)Nc1cc(F)ccc1F	16.8
Cc1nn(-c2ccc(N3CCCCC3)nn2)c(C)c1CCC(=O)Nc1cccc(F)c1	3.39
CCn1c(SCC(=O)NC(C)(C)C)nc(O)cc1=O	12
O=[N+]([O-])c1cccc(/C=N/Nc2nc(NCc3ccccc3)nc(N3CCOCC3)n2)c1O	6.12
COC(=O)CN1C(=O)S/C(=C/c2ccc(N3CCCCC3)o2)C1=O	14.6
